# Laboratory results reported in the supplement of paper PMC8728848.
# The other results are listed elsewhere or left out.
# How the values were obtained:
# Assay in all cases: glycan array binding signal (z-score within array); higher = stronger binding
# Conditions in all cases: glycan notation: IUPAC condensed, linker removed
# [1] = target: Neu5Ac(a2-6)GlcNAc(b1-4)GlcNAc(b1-4)GlcNAc
# Method in brief: (§1)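 The Consortium for Functional Glycomics database supplied 3228 glycan arrays, of which those lacking an available protein sequence were dropped. The binding signal, a within-array Z-score, was averaged across arrays of the same protein sequence and across linkers. Negative scores can be read as non-binding.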
# Neu5Ac(a2-8)Neu5Ac = target: Neu5Ac(a2-8)Neu5Ac
# Method in brief: as §1
# [2] = target: Neu5Ac(a2-8)Neu5Ac(a2-3)Gal(b1-3)GalNAc(b1-4)[Neu5Ac(a2-3)]Gal(b1-4)Glc
# Method in brief: as §1
# [3] = target: Neu5Ac(a2-8)Neu5Ac(a2-3)Gal(b1-3)GalNAc(b1-4)[Neu5Ac(a2-8)Neu5Ac(a2-3)]Gal(b1-4)Glc
# Method in brief: as §1
# [4] = target: Neu5Ac(a2-8)Neu5Ac(a2-3)Gal(b1-4)Glc
# Method in brief: as §1
# [5] = target: Neu5Ac(a2-8)Neu5Ac(a2-3)Gal(b1-4)GlcNAc
# Method in brief: as §1
# [6] = target: Neu5Ac(a2-8)Neu5Ac(a2-3)[Gal(b1-3)GalNAc(b1-4)]Gal(b1-4)Glc
# Method in brief: as §1
# [7] = target: Neu5Ac(a2-8)Neu5Ac(a2-3)[GalNAc(b1-4)]Gal(b1-4)Glc
# Method in brief: as §1
# [8] = target: Neu5Ac(a2-8)Neu5Ac(a2-8)Neu5Ac
# Method in brief: as §1
# [9] = target: Neu5Ac(a2-8)Neu5Ac(a2-8)Neu5Ac(a2-3)Gal(b1-4)Glc
# Method in brief: as §1
# [10] = target: Neu5Ac(a2-8)Neu5Ac(a2-8)Neu5Ac(a2-3)[Gal(b1-3)GalNAc(b1-4)]Gal(b1-4)Glc
# Method in brief: as §1
# [11] = target: Neu5Ac(a2-8)Neu5Ac(a2-8)Neu5Ac(a2-3)[GalNAc(b1-4)]Gal(b1-4)Glc
# Method in brief: as §1
# [12] = target: Neu5Ac(a2-8)Neu5Ac(a2-8)Neu5Ac(a2-8)Neu5Ac(a2-3)[GalNAc(b1-4)]Gal(b1-4)Glc
# Method in brief: as §1
# [13] = target: Neu5Ac(a2-8)Neu5Gc(a2-3)Gal(b1-4)GlcNAc
# Method in brief: as §1
# [14] = target: Neu5Ac(b2-6)Gal(b1-4)GlcNAc
# Method in brief: as §1
# Neu5Ac(b2-6)GalNAc = target: Neu5Ac(b2-6)GalNAc
# Method in brief: as §1
# [15] = target: Neu5Ac9Ac(a2-3)Gal(b1-3)GlcNAc
# Method in brief: as §1
# [16] = target: Neu5Ac9Ac(a2-3)Gal(b1-4)GlcNAc
# Method in brief: as §1
# [17] = target: Neu5Ac9Ac(a2-6)Gal(b1-4)GlcNAc
# Method in brief: as §1
# [18] = target: Neu5Gc(a2-3)Gal(b1-3)GlcNAc
# Method in brief: as §1
# [19] = target: Neu5Gc(a2-3)Gal(b1-3)[Fuc(a1-4)]GlcNAc
# Method in brief: as §1
# Neu5Gc(a2-3)Gal(b1-4)Glc = target: Neu5Gc(a2-3)Gal(b1-4)Glc
# Method in brief: as §1
# [20] = target: Neu5Gc(a2-3)Gal(b1-4)GlcNAc
# Method in brief: as §1
# [21] = target: Neu5Gc(a2-3)Gal(b1-4)GlcNAc(b1-3)Gal(b1-4)GlcNAc(b1-2)Man(a1-3)[Neu5Gc(a2-3)Gal(b1-4)GlcNAc(b1-3)Gal(b1-4)GlcNAc(b1-2)Man(a1-6)]Man(b1-4)GlcNAc(b1-4)GlcNAc
# Method in brief: as §1
# [22] = target: Neu5Gc(a2-3)Gal(b1-4)[Fuc(a1-3)]GlcNAc
# Method in brief: as §1
# [23] = target: Neu5Gc(a2-6)Gal(b1-4)GlcNAc
# Method in brief: as §1
# Neu5Gc(a2-6)GalNAc = target: Neu5Gc(a2-6)GalNAc
# Method in brief: as §1
# [24] = target: Neu5Gc(a2-8)Neu5Ac(a2-3)Gal(b1-4)GlcNAc
# Method in brief: as §1
# [25] = target: Neu5Gc(a2-8)Neu5Gc(a2-3)Gal(b1-4)GlcNAc
# Method in brief: as §1
# [26] = target: Neu5Gc(a2-8)Neu5Gc(a2-3)Gal(b1-4)GlcNAc(b1-3)Gal(b1-4)GlcNAc
# Method in brief: as §1
# [27] = target: Neu5Gc(a2-8)Neu5Gc(a2-6)Gal(b1-4)GlcNAc
# Method in brief: as §1
# [28] = target: Neu5Gc(b2-6)Gal(b1-4)GlcNAc
# Method in brief: as §1
binder,measurement,setting,value
DrGal3 (Danio rerio) (protein) MDLSDALDAPPQQNNQQAGGPVWPGQPANPVWPGQPANPTWPGQPNQPAWPGQPNQQWPGQPGQPTAPGWPGPAPQTGPYGAPGQAPQVLTVPLDFPLQNGAYNKMLITINGEVKPNAKQFTVNLRRGNDIAFHINPRFSEGGKPVIVRNSMIGNNWGREERELPSFPFVPGKPFEMKILITDTEYKVAVNKSHLLEFKHRVFELNQITGLSIYNDVTLSTVNVETLQ,glycan array binding signal (z-score),[1],-0.278
same,glycan array binding signal (z-score),Neu5Ac(a2-8)Neu5Ac,-0.189
same,glycan array binding signal (z-score),[2],-0.241
same,glycan array binding signal (z-score),[3],-0.205
same,glycan array binding signal (z-score),[4],-0.271
same,glycan array binding signal (z-score),[5],-0.305
same,glycan array binding signal (z-score),[6],-0.239
same,glycan array binding signal (z-score),[7],-0.184
same,glycan array binding signal (z-score),[8],-0.251
same,glycan array binding signal (z-score),[9],-0.195
same,glycan array binding signal (z-score),[10],-0.224
same,glycan array binding signal (z-score),[11],-0.239
same,glycan array binding signal (z-score),[12],-0.212
same,glycan array binding signal (z-score),[13],-0.3
same,glycan array binding signal (z-score),[14],-0.231
same,glycan array binding signal (z-score),Neu5Ac(b2-6)GalNAc,-0.29
same,glycan array binding signal (z-score),[15],-0.271
same,glycan array binding signal (z-score),[16],-0.155
same,glycan array binding signal (z-score),[17],-0.232
same,glycan array binding signal (z-score),[18],-0.257
same,glycan array binding signal (z-score),[19],-0.233
same,glycan array binding signal (z-score),Neu5Gc(a2-3)Gal(b1-4)Glc,-0.285
same,glycan array binding signal (z-score),[20],-0.247
same,glycan array binding signal (z-score),[21],1.99
same,glycan array binding signal (z-score),[22],-0.086
same,glycan array binding signal (z-score),[23],-0.29
same,glycan array binding signal (z-score),Neu5Gc(a2-6)GalNAc,-0.254
same,glycan array binding signal (z-score),[24],-0.212
same,glycan array binding signal (z-score),[25],-0.283
same,glycan array binding signal (z-score),[26],-0.206
same,glycan array binding signal (z-score),[27],-0.285
same,glycan array binding signal (z-score),[28],-0.254
